The values below come from ChEMBL document CHEMBL4888484, “Replenishing the malaria drug discovery pipeline: Screening and hit evaluation of the MMV Hit Generation Library 1 (HGL1) against asexual blood stage Plasmodium falciparum ,using a nano luciferase reporter read-out” (2022).

About 540 (0.36%) of roughly 150,000 compounds showed an effect of 50% or more. This is one part of the list.

This assay has as its system Plasmodium falciparum. The assay is described as follows: Primary screen in NF54 nanoGlo assay, in single point, at 2uM, 72h; a lower Z score goes with more inhibition. The format is functional, Erythrocyte. The note with it: timepoint 72 hour.
As to `COCC[C@]1(C(=O)O)CCN(C(=O)OC(C)(C)C)C1`, the “% Inhibition” value came to 3% and the Z score is -0.62.
For the molecule `COc1ncc(Br)cc1CN1C(=O)[C@H](C)N(C)C1=O`, the “% Inhibition” value is 15% and the Z score was -1.88.
In the case of `FC(F)(F)CN1CCOC[C@H]1c1nc(-c2ccsc2)no1`, the “% Inhibition” value was -11% and the Z score is given as 0.94.
The matching figures for `COC(c1ccc(Cl)cc1)C(C)NC(=O)C1(C)CCOCC1` (stereo not drawn): 0% and -0.01.
As to `CN(C)C(=O)CCC(=O)N1CC[C@](C)(O)[C@H](Cc2ccccc2)C1`, the “% Inhibition” value is recorded as 10% and the Z score was -1.27.
In the same order, the values of `Nc1nc(-c2ccccc2)c2n1NC(=O)C[C@H]2C(=O)Nc1ccccc1` are -9% and 1.14.
In the case of `CC(CC(N)=O)NC1CCN(C(C)C)C1c1ccc(Cl)c(F)c1` (stereo not drawn), the “% Inhibition” value was -17% and the Z score was determined as 1.94.
Regarding `CC=C(C)C(=O)N1C[C@H](NC(=O)OC(C)(C)C)[C@@H](c2cnn(C)c2)C1`, the “% Inhibition” value is reported as -12% and the Z score worked out at 1.18.
For the molecule `OCc1ccccc1-c1cnn(Cc2ccccc2)c1`, the “% Inhibition” value is recorded as -21% and the Z score is listed as 1.95.
For `COC[C@](C)(CNS(=O)(=O)c1cccnc1)OC`, the “% Inhibition” value is on record as -24% and the Z score was determined as 4.5.
The matching figures for `COc1nccc(N(C)C)c1NC(=O)NCCc1cccs1`: -6% and 0.97.
`Cc1nc[nH]c1CN1C[C@H]2CC[C@@H](C1)N(Cc1cc(CN(C)C)cs1)C2`: the “% Inhibition” value is -6% and the Z score is reported as 0.83.
The matching figures for `Cc1cc(F)ccc1-n1ccc(NC(=O)N[C@@H]2C=C[C@H](CO)C2)n1`: -4% and 0.68.
In the same order, the values of `CN(C(=O)c1ccc(F)c(C#N)c1)[C@H]1CC1(C)C` are -1% and 0.12.
With `O=C(CCn1cncn1)N1CCO[C@@H](CC(c2ccccc2)c2ccccc2)C1`, the “% Inhibition” value is recorded as -9% and the Z score was found to be 1.16.
In the same order, the values of `Cc1ccnc([C@H](C2CC2)n2cc(-c3nc(C)n4ccccc34)nn2)c1` are 17% and -2.21.
With `Cc1nnnn1[C@@H](C(=O)NCc1cc2n(n1)CCNC2)c1ccccc1`, the “% Inhibition” value is reported as -7% and the Z score is 1.07.
In the same order, the values of `O=C(O)[C@@H]1CN(C(=O)Cc2ccc(O)cc2)C[C@@H]1c1ccccc1` are -6% and 0.95.
For the molecule `COc1ccc(OC)c2c1cc(C(=O)Nc1ccncc1)n2C`, the “% Inhibition” value is reported as -7% and the Z score is reported as 0.85.
Regarding `Cc1nn(C)c(Cl)c1S(=O)(=O)N1CCCNCC1`, the “% Inhibition” value is on record as -7% and the Z score turned out to be 1.05.
In the same order, the values of `C#C[C@@H](NC(=O)NCc1ccc(S(C)(=O)=O)c(Cl)c1)C(C)C` are -14% and 1.28.
The matching figures for `CC(C)N1C[C@H](CNC(=O)c2ccc(Cl)s2)C2(CCCCC2)C1`: -3% and 0.56.
In the same order, the values of `CC(=O)NC[C@H]1CN(C(=O)Cc2cccc(C(F)(F)F)n2)CCO1` are -5% and 0.48.
For the molecule `CN(C)c1ccc(NC(=O)CCCc2ccc3[nH]c(=O)[nH]c3c2)nc1`, the “% Inhibition” value came to 0% and the Z score was determined as 0.04.
In the same order, the values of `COc1ccc(C(=O)N2c3cc(CNC(=O)c4cccc(OC)c4)ccc3C[C@@H]2C)cc1` are 16% and -1.87.
For the molecule `Cc1ccc(C)c(C2CC3CC2C2C(=O)N(c4ccc(Br)cc4)C(=O)C32)c1` (stereo not drawn), the “% Inhibition” value is -4% and the Z score is reported as 0.54.
On to `C[C@@H](Oc1cnc2ccccc2c1)C(=O)N[C@H]1CCO[C@@H]1c1ccc(=O)[nH]c1`, for which the “% Inhibition” value is reported as -6% and the Z score stood at 0.94.
As to `CC(=O)NC(C)C(=O)N1CCO[C@@H](C)C1` (stereo partly drawn), the “% Inhibition” value is listed as 1% and the Z score is given as -0.18.
In the same order, the values of `CCCS(=O)(=O)Nc1ccccc1-c1ncc2n1CCCC2` are -15% and 1.74.
The matching figures for `COc1ccc(N2CCN3c4ccc(C(F)(F)F)cc4CC(C(=O)NCCC(C)C)C3C2)cc1` (stereo not drawn): 4% and -0.37.
Consider `CCOc1ncccc1NC(=O)c1cc(C)no1`, for which the “% Inhibition” value is on record as -13% and the Z score was determined as 1.14.
With `O=C(NC(c1ccccc1)c1ccccc1)c1cc2n(n1)CCN(Cc1ccccc1Cl)C2=O`, the “% Inhibition” value amounted to 4% and the Z score is recorded as -0.76.
In the same order, the values of `O=C(O)[C@H]1CCN(C(=O)c2ccc3c(c2)CCCC3)C1` are -10% and 1.43.
The matching figures for `C[C@H]1CS(=O)(=O)CCCN1C(=O)Cc1ccc2cnccc2c1`: -2% and 0.3.
In the same order, the values of `Cc1ccc(CN2CCN(c3ncccn3)CC2)o1` are -14% and 1.95.
For `CCn1ncnc1[C@H](C)n1cnc2cccnc2c1=O`, the “% Inhibition” value is given as -13% and the Z score was found to be 1.24.
In the same order, the values of `Cc1nccn1[C@H]1CCCN(c2nc(N)nc3c2cnn3C)C1` are -14% and 1.44.
With `CC(NC(=O)C1CC2CCCCC2N1S(=O)(=O)c1ccc2c(c1)OCCO2)c1ccccc1` (stereo not drawn), the “% Inhibition” value is on record as -33% and the Z score amounted to 3.88.
On to `O=C(O)C1CN(c2nc3c(F)cccc3s2)C1`, for which the “% Inhibition” value was found to be 24% and the Z score was -3.02.
The matching figures for `O=C(Cc1ccccc1)N1CCN(C(=O)c2cccc(F)c2)CC1`: -10% and 1.97.
As to `Cc1cc2c(cc1C)C(C(=O)N1CCOC(CNc3nccn(C)c3=O)C1)CO2` (stereo not drawn), the “% Inhibition” value amounted to 26% and the Z score is recorded as -2.97.
`Cc1cnc(C(=O)NC[C@@H]2CN(C)C(=O)[C@H](c3ccccc3)N2Cc2cccnc2)cn1`: the “% Inhibition” value is -1% and the Z score turned out to be 0.11.
In the case of `Cc1cc(NC(=O)NCCc2cn[nH]c2)cnc1C(F)(F)F`, the “% Inhibition” value is -9% and the Z score turned out to be 1.61.
As to `Cc1nonc1[C@@H]1CCCN1Cc1ccc(-c2ccn(CCCF)n2)o1`, the “% Inhibition” value was -9% and the Z score was found to be 0.83.
The matching figures for `O=C1c2ccccc2C(=O)N1C[C@@H](O)Cn1ccnc1`: -13% and 1.22.
`CCc1nc(CN2CCC[C@H](O)CC2)no1`: the “% Inhibition” value was -9% and the Z score is listed as 1.75.
For the molecule `CCC[C@]1(O)CCC12CCN(C(=O)c1ccc3ncccc3c1)CC2`, the “% Inhibition” value is 2% and the Z score is given as -0.31.
In the same order, the values of `CCC[C@]1(CO)CCN(Cc2csc(CCC(C)C)n2)C1` are -21% and 2.31.
The matching figures for `CCC(NC(=O)NC1CCc2c(nnn2C)C1)C(F)F` (stereo not drawn): -3% and 0.38.
For `Cc1cc(C)n(-c2ccnc(N3CCc4ccccc4C3)n2)n1`, the “% Inhibition” value was -18% and the Z score is given as 1.92.
Take `CO[C@H]1CCCOC12CCN(C(=O)c1cc(C)nc3onc(C)c13)CC2`: the “% Inhibition” value is -11% and the Z score was determined as 1.49.
The matching figures for `OC[C@H](CC1CCC1)Nc1cnccn1`: 1% and -0.13.
In the case of `Cc1ncsc1C(=O)N(C)Cc1cnn(C)c1`, the “% Inhibition” value was found to be 9% and the Z score is -1.51.
For the molecule `Cc1ccn2c(Nc3ccc4c(c3)OCCO4)c(-c3ccc(N4CCOCC4)cc3)nc2c1`, the “% Inhibition” value is recorded as -3% and the Z score is given as 0.53.
On to `c1ccc([C@@H]2CN(c3nnc(-c4ccccn4)s3)CCO2)cc1`, for which the “% Inhibition” value is recorded as -2% and the Z score amounted to 0.19.
Regarding `O=C(NCC1CCCCC1)[C@@]1(CCO)CC12CCOCC2`, the “% Inhibition” value is on record as 3% and the Z score is listed as -0.57.
The matching figures for `Cc1cc(O)cc(=O)n1CCCC(=O)N[C@H](c1nc2ccccc2n1C(C)C)C(C)C`: -12% and 1.56.
Regarding `COc1cccc(Cn2c(C(=O)NC3CCCCC3)cc3ccsc32)c1`, the “% Inhibition” value is on record as -4% and the Z score is 0.47.
The matching figures for `OC(c1ccccn1)C(O)c1ccccn1` (stereo not drawn): -2% and 0.27.
As for `COc1ccc(CCC(=O)N2CC3(C[C@H](N4CCCCC4)CO3)C2)cc1`, the “% Inhibition” value was -6% and the Z score was 0.93.
In the same order, the values of `O=C(COC(=O)c1ccc2ccccc2c1)Nc1ccccc1C(F)(F)F` are -4% and 0.57.
In the same order, the values of `Cc1cccc(-c2noc(-c3ccc(N4CCc5ccccc5C4)nc3)n2)c1` are 2% and -0.24.
Turning to `Cc1cnc(CCNC(=O)NCCC(=O)N(C)C)s1`, the “% Inhibition” value is on record as -7% and the Z score worked out at 0.96.
As to `O=C(CCCc1ccccc1)N1CCN(c2cc(N3CCCC3)ncn2)CC1`, the “% Inhibition” value is reported as 6% and the Z score is -0.85.
In the same order, the values of `CCc1cccc(NC(=O)c2cc3nccc(-c4ccc(OC)c(OC)c4)n3n2)c1` are -3% and 0.37.
In the case of `O=C(Cc1ccon1)N1CC(S(=O)(=O)N2CCc3ccccc32)C1`, the “% Inhibition” value is on record as -12% and the Z score turned out to be 2.18.
The matching figures for `Cc1cc(C)c(CNC(=O)c2cnc(OC(C)C)c(Cl)c2)c(=O)[nH]1`: -13% and 2.03.
The matching figures for `CC(=O)N(C)c1nc(COc2cccc(S(C)(=O)=O)c2)cs1`: -4% and 0.47.
The matching figures for `CCc1cccc(OC2CN(c3cc([C@H]4C[C@H](N)C4)ncn3)C2)c1`: -5% and 1.07.
As for `Cc1n[nH]c(C)c1NC(=O)CN[C@H](c1cccs1)C(C)(C)C`, the “% Inhibition” value is listed as -3% and the Z score was 0.66.
In the same order, the values of `N#CCNC(=O)c1ccccc1Br` are -5% and 0.85.
In the same order, the values of `Cc1ccc(C(C)C)c(Oc2nc(-c3ccccc3O)nc3ccccc23)c1` are 26% and -2.99.
Turning to `Cn1nc(C2CC2)nc1CN1CCOc2c(Cl)cc(Br)cc21`, the “% Inhibition” value is -5% and the Z score is 0.6.
The matching figures for `CN(C)c1ccc(CN2CC[C@H](O)CC(C)(C)C2)cn1`: -19% and 2.47.
In the same order, the values of `CN(C)[C@@H]1CN(Cc2cc(F)c(F)cc2F)CC[C@@H]1CO` are 1% and -0.09.
For the molecule `COCc1nc(NC[C@@H](c2sccc2C)N(C)C)c2cnn(C)c2n1`, the “% Inhibition” value worked out at 2% and the Z score is reported as -0.27.
In the same order, the values of `COc1ncc(Cl)c(N2C[C@H](CS(N)(=O)=O)[C@@H](C)C2)n1` are -12% and 2.37.
`O=C(CCCc1cn[nH]c1)N[C@@H]1COCC[C@@H]1Oc1cccc(F)c1`: the “% Inhibition” value is reported as -24% and the Z score came to 2.46.
In the same order, the values of `O=C(N[C@H]1CCN(c2nccs2)C1)c1cc(C2CC2)on1` are -8% and 1.52.
`Cc1ccc(CCNC(=O)c2cc(CN3CCc4ccccc4C3)on2)o1`: the “% Inhibition” value is on record as -11% and the Z score amounted to 1.45.
In the same order, the values of `Cc1cc(-c2c(C)sc(C)c2S(=O)(=O)N2CCN(c3ccc(Cl)cc3)CC2)on1` are -7% and 1.22.
`COc1nc2c(cc1CNC(=O)c1ncccc1O)C(=O)N(C1CCCC1)C2`: the “% Inhibition” value is reported as -11% and the Z score is reported as 1.21.
With `CCN(C(=O)Cn1c(=O)n(Cc2ccco2)c(=O)c2c1c(C)nn2CC)c1cccc(C)c1`, the “% Inhibition” value is listed as 4% and the Z score is on record as -0.48.
The matching figures for `COCC1(NC(=O)c2nc(C)sc2C)CCCC1`: -5% and 0.73.

Usually % Inhibition stands for the relative decrease from the control value, in per cent.
